Measured values: patent US20090176702A1 (published 2009)

Biological target: T1, TNFα (of the treated mice) (mouse, UniProt P06804 80-235, limits assumed)
T1 sequence (looked up): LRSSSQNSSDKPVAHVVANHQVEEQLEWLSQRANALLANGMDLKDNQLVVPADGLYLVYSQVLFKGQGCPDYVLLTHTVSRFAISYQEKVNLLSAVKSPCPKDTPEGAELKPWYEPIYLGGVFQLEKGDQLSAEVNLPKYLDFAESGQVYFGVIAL
Assay: cell-based or functional assay

B1: long-acting recombinant human soluble tumor necrosis factor α receptor (LHusTNFR) type II in the form of HusTNFR type II-IgG1:Fc (Fc fusion)
chain: LPAQVAFTPYAPEPGSTCRLREYYDQTAQMCCSKCSPGQHAKVFCTKTSDTVCDSCEDSTYTQLWNWVPECLSCGSRCSSDQVETQACTREQNRICTCRPGWYCALSKQEGCRLCAPLRKCRPGFGVARPGTETSDVVCKPCAPGTFSNTTSSTDICRPHQICNVVAIPGNASMDAVCTSTSPTRSMAPGAVHLPQPVSTRSQHTQPTPEPSTAPSTSFLLPMGPSPPAEGSTGD[sequence of human IgG1 Fc with K326L (EU numbers) omitted]
B1 was tested. Which “IL-6 mRNA level in liver (real-time PCR), decrease as compared with the control group” value did it give?
Its value is 78.3%.

What about the “MIP-2 mRNA level in liver (real-time PCR), decrease as compared with the control group” value of the same binder?
The value was 72.1%.

And the “bcl-xL mRNA level in liver (real-time PCR), decrease as compared with the control group” value?
Its value is 77.3%.
